This passage reports binding results from PMC5489516.

Chains of the proteins cited; added tags and fusions are not shown.
UniProt O15169: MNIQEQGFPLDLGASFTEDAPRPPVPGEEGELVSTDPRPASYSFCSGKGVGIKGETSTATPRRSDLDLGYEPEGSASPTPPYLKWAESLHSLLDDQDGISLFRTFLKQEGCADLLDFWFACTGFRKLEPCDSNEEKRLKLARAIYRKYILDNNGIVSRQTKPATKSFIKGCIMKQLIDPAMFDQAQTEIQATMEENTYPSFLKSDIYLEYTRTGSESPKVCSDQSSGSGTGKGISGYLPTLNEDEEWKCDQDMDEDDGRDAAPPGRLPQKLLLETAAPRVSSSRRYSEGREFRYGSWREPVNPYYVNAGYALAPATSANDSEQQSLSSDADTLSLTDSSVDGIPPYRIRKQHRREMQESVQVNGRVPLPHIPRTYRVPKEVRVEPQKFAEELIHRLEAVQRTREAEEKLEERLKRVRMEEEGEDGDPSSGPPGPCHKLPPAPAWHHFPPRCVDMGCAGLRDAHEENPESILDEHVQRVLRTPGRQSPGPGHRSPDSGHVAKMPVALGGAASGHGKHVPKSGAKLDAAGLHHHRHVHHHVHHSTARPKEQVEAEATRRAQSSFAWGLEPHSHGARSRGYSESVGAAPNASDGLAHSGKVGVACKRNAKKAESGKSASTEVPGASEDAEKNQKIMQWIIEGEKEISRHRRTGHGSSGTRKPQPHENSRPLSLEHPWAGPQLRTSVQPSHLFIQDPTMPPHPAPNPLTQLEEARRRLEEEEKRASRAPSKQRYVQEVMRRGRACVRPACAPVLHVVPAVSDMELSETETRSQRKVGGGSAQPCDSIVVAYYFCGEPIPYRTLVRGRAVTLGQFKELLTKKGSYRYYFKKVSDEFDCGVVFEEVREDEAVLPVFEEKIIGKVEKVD
UniProt O95271: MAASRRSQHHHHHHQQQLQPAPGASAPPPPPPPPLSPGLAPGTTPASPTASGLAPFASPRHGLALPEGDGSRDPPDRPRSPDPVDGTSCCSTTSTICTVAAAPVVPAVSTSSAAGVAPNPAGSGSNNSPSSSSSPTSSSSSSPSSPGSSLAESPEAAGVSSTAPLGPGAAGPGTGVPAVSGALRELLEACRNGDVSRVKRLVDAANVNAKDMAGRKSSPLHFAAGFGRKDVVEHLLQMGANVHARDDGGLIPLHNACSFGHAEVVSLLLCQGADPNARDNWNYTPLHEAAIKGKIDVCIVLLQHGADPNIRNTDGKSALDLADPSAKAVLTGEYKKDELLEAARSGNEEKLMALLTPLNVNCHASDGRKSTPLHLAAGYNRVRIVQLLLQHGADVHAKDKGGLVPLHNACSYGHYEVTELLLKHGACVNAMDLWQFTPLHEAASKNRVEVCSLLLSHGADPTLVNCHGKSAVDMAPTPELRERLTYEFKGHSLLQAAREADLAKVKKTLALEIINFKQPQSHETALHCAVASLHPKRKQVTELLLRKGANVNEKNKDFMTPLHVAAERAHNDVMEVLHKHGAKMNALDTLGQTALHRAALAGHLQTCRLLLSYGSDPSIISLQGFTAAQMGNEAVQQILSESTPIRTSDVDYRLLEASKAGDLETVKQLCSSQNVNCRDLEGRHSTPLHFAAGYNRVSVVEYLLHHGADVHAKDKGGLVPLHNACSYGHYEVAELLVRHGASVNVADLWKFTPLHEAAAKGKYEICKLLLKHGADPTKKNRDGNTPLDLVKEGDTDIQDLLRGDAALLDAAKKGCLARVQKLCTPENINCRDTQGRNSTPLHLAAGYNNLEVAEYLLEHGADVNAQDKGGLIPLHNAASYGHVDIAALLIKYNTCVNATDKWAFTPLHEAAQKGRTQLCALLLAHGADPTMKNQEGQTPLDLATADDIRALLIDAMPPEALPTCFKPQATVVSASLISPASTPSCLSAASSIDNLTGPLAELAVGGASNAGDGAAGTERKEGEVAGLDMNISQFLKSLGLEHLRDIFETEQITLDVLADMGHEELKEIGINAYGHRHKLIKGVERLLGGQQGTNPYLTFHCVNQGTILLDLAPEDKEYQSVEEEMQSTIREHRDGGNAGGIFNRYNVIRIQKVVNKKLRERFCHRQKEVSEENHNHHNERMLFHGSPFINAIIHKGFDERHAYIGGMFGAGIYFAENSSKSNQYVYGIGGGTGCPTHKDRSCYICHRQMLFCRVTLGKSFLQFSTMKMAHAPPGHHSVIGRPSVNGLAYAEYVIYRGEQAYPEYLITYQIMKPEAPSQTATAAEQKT
UniProt P35222: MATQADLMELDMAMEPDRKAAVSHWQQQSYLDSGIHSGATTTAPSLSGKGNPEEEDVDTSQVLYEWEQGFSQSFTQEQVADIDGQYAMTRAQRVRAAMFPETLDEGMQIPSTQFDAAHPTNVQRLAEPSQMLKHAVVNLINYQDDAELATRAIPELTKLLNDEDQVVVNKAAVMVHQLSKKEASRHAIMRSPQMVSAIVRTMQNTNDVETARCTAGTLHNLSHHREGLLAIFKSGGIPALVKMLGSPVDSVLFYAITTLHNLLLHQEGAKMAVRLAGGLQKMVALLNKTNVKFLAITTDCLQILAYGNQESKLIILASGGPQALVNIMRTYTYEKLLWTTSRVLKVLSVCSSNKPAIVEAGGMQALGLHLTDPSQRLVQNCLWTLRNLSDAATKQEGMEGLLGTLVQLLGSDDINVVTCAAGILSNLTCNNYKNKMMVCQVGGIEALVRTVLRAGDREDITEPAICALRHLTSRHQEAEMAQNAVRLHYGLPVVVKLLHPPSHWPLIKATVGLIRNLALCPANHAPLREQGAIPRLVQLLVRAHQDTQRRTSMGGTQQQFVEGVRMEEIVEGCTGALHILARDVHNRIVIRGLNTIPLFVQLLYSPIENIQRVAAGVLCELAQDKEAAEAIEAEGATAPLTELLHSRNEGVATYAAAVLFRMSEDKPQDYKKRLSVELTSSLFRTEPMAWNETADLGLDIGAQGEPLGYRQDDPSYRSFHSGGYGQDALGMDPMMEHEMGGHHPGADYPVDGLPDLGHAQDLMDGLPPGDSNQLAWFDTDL

Numbering of substitutions follows the chain as printed. Names and notes keep the numbering of the source. No constants are given. Whether binding was seen depends on the method and setting. Binding seen in cells or lysates may run through a third protein. Some binding calls cover weakened binding; strength is not graded here. For part of these data: Where a sequence is shown, tags or fusion partners need not be part of it.

Assay [1] concerns the target Axis inhibition protein 1 (Axin1) (human (endogenous in SW480)) (UniProt O15169). Put plainly: co-IP; SW480 lysate (cells transfected with control or PrxII-1 siRNA; BIO for 1 h before lysis in some samples), IP with anti-Axin1 antibody or control IgG, immunoblot. (In general: A western blot detects proteins with antibodies after separation by electrophoresis.)
The target of assay [2] is Flag-TNKS1, full-length tankyrase-1 (1–1327) (human) (UniProt O95271). Put plainly: co-IP; additional co-IP experiment with the PrxI-T111R mutant and TNKS1, told only in the discussion, no figure.
For assay [3] the target is unchanged. Put plainly: co-IP; HEK293 cells co-transfected with Flag-TNKS1 (whole or truncated) and Myc-tagged PrxII (WT or Gly mutants), IP with anti-M2 (Flag) antibody, blot with anti-Myc.

In the case of “phospho-β-catenin (from UniProt P35222 1-781)”, the binding entry in assay [1] is “binds”.

B1: PrxI-T111R mutant (enzyme, UniProt Q06830 1-199)
chain: MSSGNAKIGHPAPNFKATAVMPDGQFKDISLSDYKGKYVVFFFYPLDFTFVCPTEIIAFSDRAEEFKKLNCQVIGASVDSHFCHLAWVNTPKKQGGLGPMNIPLVSDPKRRIAQDYGVLKADEGISFRGLFIIDDKGILRQITVNDLPVGRSVDETLRLVQAFQFTDKHGEVCPAGWKPGSDTIKPDVQKSKEYFSKQK
For the molecule B1, in assay [2], the binding entry is “no binding”.

B2: Myc-tagged PrxII WT (PrxII-Myc) (enzyme, UniProt P32119 2-198)
chain: ASGNARIGKPAPDFKATAVVDGAFKEVKLSDYKGKYVVLFFYPLDFTFVCPTEIIAFSNRAEDFRKLGCEVLGVSVDSQFTHLAWINTPRKEGGLGPLNIPLLADVTRRLSEDYGVLKTDEGIAYRGLFIIDGKGVLRQITVNDLPVGRSVDEALRLVQAFQYTDEHGEVCPAGWKPGSDTIKPNVDDSKEYFSKHN
Take B2: the binding entry in assay [3] is listed as “binds”.

B3: Myc-tagged PrxII G9V mutant (enzyme, UniProt P32119 2-198)
chain: B2 chain with G8V
As for B3, the binding entry in assay [3] is on record as “binds”.

B4: Myc-tagged PrxII G23V mutant (enzyme, UniProt P32119 2-198)
chain: B2 chain with G22V
As for B4, the binding entry in assay [3] is listed as “binds”.

B5: Myc-tagged PrxII G116V mutant (enzyme, UniProt P32119 2-198)
chain: B2 chain with G115V
In the case of B5, the binding entry in assay [3] is given as “no binding”.
